In all, about 330,000 compounds went through this assay and about 560 (0.17%) were called active. This list was built around the results that the source calls inconclusive (neither active nor inactive); the mix of calls is not that of the screen. The call rests on the fitted dose curve; in most records, active means well fitted inhibition curve with a large enough effect; inconclusive means small, poorly fitted or top-dose-only effect, or effect the other way; inactive means flat fitted curve, though single readings scatter. No potency is given beside an inconclusive call; the fits are too rough.
target: ATP-dependent 6-phosphofructokinase (Trypanosoma brucei brucei) (UniProt O15648); test: qHTS Assay to Find Inhibitors of T. brucei phosphofructokinase; further: nearly all actives have a fitted effect of over 60% in size;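 on activity, negative = inhibition: 0% = uninhibited 1x PFK enzyme wells and -100% = no-enzyme wells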; conditions: T. brucei PFK, ADP-Glo luminescence; activity, negative = inhibition: at 57.5 µM (top of the series)
UniProt O15648, sequence (O15648 whole entry, looked up): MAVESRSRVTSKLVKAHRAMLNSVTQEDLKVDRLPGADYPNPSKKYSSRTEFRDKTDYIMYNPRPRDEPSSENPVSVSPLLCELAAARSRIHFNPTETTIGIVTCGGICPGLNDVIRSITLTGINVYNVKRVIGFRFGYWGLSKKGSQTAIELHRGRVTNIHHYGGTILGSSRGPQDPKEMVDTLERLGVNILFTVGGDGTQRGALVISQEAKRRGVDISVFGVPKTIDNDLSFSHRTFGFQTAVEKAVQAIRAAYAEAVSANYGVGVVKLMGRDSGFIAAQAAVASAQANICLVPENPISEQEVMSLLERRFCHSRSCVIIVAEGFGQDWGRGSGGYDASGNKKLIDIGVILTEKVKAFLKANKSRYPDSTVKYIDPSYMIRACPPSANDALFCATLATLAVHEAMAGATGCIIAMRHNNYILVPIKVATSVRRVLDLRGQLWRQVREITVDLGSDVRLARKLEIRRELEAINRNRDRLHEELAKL
How it was run: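 Activity is normalized to no-enzyme wells (full inhibition) and 1.25 nM enzyme wells (no inhibition). Reaction: 0.5 mM F6P, 0.1 mM ATP, 45 min RT, ADP-Glo luminescence; concentration-response curves fitted and classed by quality.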
Potency means the concentration at half of the fitted maximal effect; tags describe the fitted curve by direction and shape.

**Q.** `Cc1ccc(S(=O)(=O)Oc2ccccc2/C=N/N=C(N)N)cc1` was tested. Which “activity, negative = inhibition” value did it give?
**A.** inactive: -6.87%

**Q.** Which Potency does the source give for `O=C(Cc1cccc2ccccc12)Nc1cc(C(=O)O)cc(C(=O)O)c1` here?
**A.** active: 8.49 µM

**Q.** Which Potency does the source give for `O=C(CSc1nncc2ccccc12)Nc1ccc(C(=O)O)cc1` here?
**A.** inconclusive [falling, single point]

**Q.** For `CCC(C)NC(=O)CSc1c2c(nc3ccccc13)CCCC2` (configuration not stated), which “activity, negative = inhibition” value is on record?
**A.** inactive: 1.79%

**Q.** For `O=C(NCCCN1CCOCC1)C(=O)N/N=C/c1c2ccccc2cc2ccccc12`, which “activity, negative = inhibition” value is on record?
**A.** inactive: -2.03%

**Q.** For `N#C/C(C(=O)Nc1ccc(Cl)cc1)=C(/S)Nc1ccccc1`, which Potency is on record?
**A.** active: 9.53 µM

**Q.** `COc1cc(C2/C(=C(\O)c3ccc4c(c3)CC(C)O4)C(=O)C(=O)N2CCCn2ccnc2)ccc1O` (configuration not stated) was tested. Which Potency did it give?
**A.** inconclusive [falling, single point]

**Q.** Which Potency does the source give for `C=CCn1c(CSc2nc3ccccc3s2)n[nH]c1=S` here?
**A.** inconclusive [falling, single point]

**Q.** Which Potency does the source give for `Cc1c(Cl)cccc1NC(CC(=O)c1ccccc1)C(=O)OCC(=O)c1cccs1` (configuration not stated) here?
**A.** inconclusive [falling, partial curve]

**Q.** With `CCOC(=O)c1c(C)c(C(=O)NCCc2ccccc2)c(C)n1C` as the molecule, how does the “activity, negative = inhibition” value read?
**A.** inactive: -4.39%

**Q.** `Cc1ccc(-c2nc3cnccn3c2Nc2c(C)cccc2C)o1` was tested. Which Potency did it give?
**A.** inconclusive [falling, partial curve]

**Q.** With `N#CC(C#N)=C(N)/C(C#N)=C/c1cc(O)c(O)c(O)c1` as the molecule, how does the Potency read?
**A.** inconclusive [falling, single point]

**Q.** Which “activity, negative = inhibition” value does the source give for `O=C1NN(c2ccccc2)C(=O)/C1=C\c1cccn1-c1ccc(Cl)c([N+](=O)[O-])c1` here?
**A.** inactive: -4.62%

**Q.** Which “activity, negative = inhibition” value does the source give for `Nc1nonc1-n1nnc(C(=O)N/N=C/c2ccc(O)cc2)c1COc1ccc(F)cc1` here?
**A.** inactive: -3.89%

**Q.** How did the Potency turn out when `CCCc1cc(=O)[nH]c(SCC(=O)Nc2c(C)n(C)n(-c3ccccc3)c2=O)n1` was run?
**A.** inconclusive [falling, single point]

**Q.** For `Cc1cccc[n+]1CC(=O)c1ccc2c(c1)OCCO2`, which “activity, negative = inhibition” value is on record?
**A.** inactive: -1.29%

**Q.** Which “activity, negative = inhibition” value does the source give for `CS(=O)(=O)c1ccc(Cl)c(NC(=O)COC(=O)c2ccc(-n3cnnn3)cc2)c1` here?
**A.** inactive: -2.72%

**Q.** With `CC(C)NC(=O)CN1CCN(C(=O)c2ccc3oc(CCCc4ccccc4)nc3c2)CC1` as the molecule, how does the “activity, negative = inhibition” value read?
**A.** inactive: 1.67%

**Q.** How did the Potency turn out when `O=C(O)C1Nc2c(O)cc(Cl)c([N+](=O)[O-])c2C2C=CCC12` (configuration not stated) was run?
**A.** inconclusive [falling, single point]

**Q.** With `O=C(O)c1ccc(NC2=C(Cl)C(=O)c3ccccc3C2=O)cc1` as the molecule, how does the Potency read?
**A.** inconclusive [activator, full curve]

**Q.** `Cc1[nH][nH]c(=O)c1C(c1ccc(-c2ccc(C(=O)O)cc2)o1)c1c(C)[nH][nH]c1=O` was tested. Which Potency did it give?
**A.** inconclusive [falling, single point]

**Q.** With `O=C(Nc1ccc(NC(=O)c2sc3ccccc3c2Cl)cc1Cl)c1ccco1` as the molecule, how does the “activity, negative = inhibition” value read?
**A.** inactive: 1.31%

**Q.** `O=C(COc1ccc(Cl)cc1)Nc1cccc(S(=O)(=O)NC2=NCCCCC2)c1` was tested. Which Potency did it give?
**A.** active: 3.01 µM

**Q.** With `O=C(CSc1nc2nc(-c3cccs3)cc(C(F)(F)F)c2c(=O)[nH]1)C(F)(F)F` as the molecule, how does the “activity, negative = inhibition” value read?
**A.** inactive: -27.3%

**Q.** How did the Potency turn out when `O=C(CCn1cccc1)NCc1ccc2c(c1)OCO2` was run?
**A.** inconclusive [falling, single point]

**Q.** `O=C(O)CC1S/C(=N/N=C/c2ccc(-c3ccccc3[N+](=O)[O-])o2)NC1=O` (configuration not stated) was tested. Which Potency did it give?
**A.** inconclusive [activator, full curve]

**Q.** With `CSc1ccc(/C=C/C(=O)c2ccc(NC(C)=O)cc2)cc1` as the molecule, how does the Potency read?
**A.** inconclusive [falling, single point]

**Q.** Which Potency does the source give for `O=C(Nc1ccc(S(=O)(=O)N2CCOCC2)cc1)C1COc2ccccc2O1` (configuration not stated) here?
**A.** inconclusive [falling, single point]

**Q.** `O=C(CSc1ccc(-c2ccco2)nn1)c1ccccc1` was tested. Which Potency did it give?
**A.** inconclusive [falling, single point]

**Q.** How did the Potency turn out when `O=C(NNC(=O)c1cc2cc3ccccc3nc2s1)c1cccc(Cl)c1` was run?
**A.** inconclusive [falling, single point]

**Q.** How did the “activity, negative = inhibition” value turn out when `CC(=O)c1ccc(NC(=O)N2CCc3ccccc3C2)cc1` was run?
**A.** inactive: 0.153%

**Q.** How did the “activity, negative = inhibition” value turn out when `O=C(Cc1ccccc1)Nc1ccc(NC(=O)c2ccccc2)nc1` was run?
**A.** inactive: 4.67%

**Q.** For `Cc1ccc(CNC(=O)COc2ccc(C)nc2[N+](=O)[O-])cc1`, which “activity, negative = inhibition” value is on record?
**A.** inactive: -1.97%

**Q.** For `CC(OC(=O)CC1CCCC1)C(=O)Nc1ccc(Cl)cn1` (configuration not stated), which “activity, negative = inhibition” value is on record?
**A.** inactive: -0.106%

**Q.** `O=[N+]([O-])c1ccc(Cc2ccccn2)cc1` was tested. Which Potency did it give?
**A.** inconclusive [falling, partial curve]

**Q.** `CCCCCC1NC(=O)NC1CCCCCC(=O)O` (configuration not stated) was tested. Which “activity, negative = inhibition” value did it give?
**A.** inactive: -4.03%

**Q.** With `CCN(CC)S(=O)(=O)c1ccc2oc(SCC3CN=C(c4ccc(OC)cc4)S3)nc2c1` (configuration not stated) as the molecule, how does the Potency read?
**A.** inconclusive [falling, partial curve]

**Q.** Which Potency does the source give for `O=[N+]([O-])c1ccc(NC(=S)NCc2ccc(F)cc2)cc1` here?
**A.** inconclusive [falling, partial curve]

**Q.** Which Potency does the source give for `COc1ccc(CCNC(=O)c2cc3c(=O)n4cccc(C)c4nc3n(Cc3ccco3)c2=N)cc1OC` here?
**A.** inconclusive [falling, partial curve]

**Q.** How did the Potency turn out when `O=C(NCc1ccco1)C1Cc2cc(Cl)ccc2O1` (configuration not stated) was run?
**A.** inconclusive [falling, single point]

**Q.** Which Potency does the source give for `CC1(C)CC(=O)C(C(C2=C(O)CC(C)(C)CC2=O)c2cccs2)C(=O)C1` (configuration not stated) here?
**A.** inconclusive [activator, partial curve]

**Q.** How did the Potency turn out when `Cn1c(=O)c(C(=O)COc2ccc(F)cc2Cl)c(N)n(Cc2ccccc2)c1=O` was run?
**A.** inconclusive [falling, single point]

**Q.** For `Cc1oc(-c2ccc(Cl)cc2)cc1-c1nn2c(-c3ccoc3C)nnc2s1`, which Potency is on record?
**A.** inconclusive [falling, partial curve]

**Q.** Which Potency does the source give for `CCN(CC)C(=O)Cn1cc(S(=O)(=O)CC(=O)Nc2ccc(C(N)=O)cc2)c2ccccc21` here?
**A.** inconclusive [falling, single point]

**Q.** Which Potency does the source give for `CC(=O)c1cccc(CN2CCc3ccc(NC(=O)C4CCCO4)cc3C2)c1` (configuration not stated) here?
**A.** inconclusive [falling, single point]

**Q.** With `C#CCOCCOCCOCCNc1nc(N2CCN(C(=O)CCCCCCCCCCNC(=O)Cn3cc(CCCCCN)nn3)CC2)nc(N2CCN(C(=O)CCCCCCCCCCNC(=O)Cn3cc(CCCCCN)nn3)CC2)n1` as the molecule, how does the activity, negative = inhibition read?
**A.** inconclusive: 131% [activator]

**Q.** Which Potency does the source give for `Cc1cc(C)c2oc(C(=O)Nc3ccc(S(=O)(=O)Nc4nccs4)cc3)cc(=O)c2c1` here?
**A.** inconclusive [activator, partial curve]

**Q.** With `Cc1nc2ccc(NC(=O)c3ccc4ccccc4n3)cc2s1` as the molecule, how does the “activity, negative = inhibition” value read?
**A.** inactive: -1.01%

**Q.** `Cc1nn(-c2ccc(C(=O)N3CCN(S(=O)(=O)c4ccccc4C(F)(F)F)CC3)cc2)c(C)c1Cl` was tested. Which “activity, negative = inhibition” value did it give?
**A.** inactive: 0.144%

**Q.** `COc1ccc2c(c1)CC/C2=N\OC(=O)c1ccccc1OC` was tested. Which “activity, negative = inhibition” value did it give?
**A.** inactive: 0.255%

**Q.** With `Oc1c(Br)cc(C=Nc2ccc3nc(-c4ccccc4)[nH]c3c2)c(O)c1Br` as the molecule, how does the Potency read?
**A.** inconclusive [activator, single point]

**Q.** For `COc1ccc(CCn2c(=N)c(C(=O)NCC3CCCO3)cc3c(=O)n4cccc(C)c4nc32)cc1` (configuration not stated), which “activity, negative = inhibition” value is on record?
**A.** inactive: 2.62%

**Q.** With `O=C(Cc1ccc(Cl)cc1)Nc1ccc(S(=O)(=O)Nc2cnc3ccccc3n2)cc1` as the molecule, how does the Potency read?
**A.** inconclusive [falling, single point]

**Q.** How did the Potency turn out when `CCOC(=O)N1CCC(NC(=O)CCC(=O)N2CCOc3ccc(Cl)cc32)CC1` was run?
**A.** inconclusive [falling, partial curve]

**Q.** Which “activity, negative = inhibition” value does the source give for `Cc1ccc(NC(=O)CN2C(=O)S/C(=C\c3cc(C)n(C)c3C)C2=O)cc1` here?
**A.** inactive: -2.22%

**Q.** `NC(=O)c1ccsc1NC(=O)Cc1ccc([N+](=O)[O-])cc1` was tested. Which Potency did it give?
**A.** inconclusive [activator, single point]

**Q.** How did the “activity, negative = inhibition” value turn out when `FC(F)(F)c1ccnc(N2CCN(Cc3cnc(-c4ccccc4)[nH]3)CC2)c1` was run?
**A.** inactive: 2.7%

**Q.** How did the Potency turn out when `O=C(O)c1ccc2c(c1)C(=O)/C(=C\c1ccco1)C2=O` was run?
**A.** inconclusive [activator, full curve]

**Q.** With `CCCNC(=O)COC(=O)c1ccccc1C(=O)c1ccc(Cl)c([N+](=O)[O-])c1` as the molecule, how does the “activity, negative = inhibition” value read?
**A.** inactive: -1.66%

**Q.** For `O=C(c1ccco1)N1CCN(Cc2cccc(F)c2)CC1`, which Potency is on record?
**A.** inconclusive [falling, single point]

**Q.** Which “activity, negative = inhibition” value does the source give for `CC1CCCC(C)N1CCCNC(=O)Cn1ncc2c3ccccc3n(C)c2c1=O` (configuration not stated) here?
**A.** inactive: 0.598%

**Q.** How did the Potency turn out when `COc1ccc(Br)cc1/C=c1\sc2nc(-c3ccco3)nn2c1=O` was run?
**A.** inconclusive [falling, partial curve, poor fit]

**Q.** How did the “activity, negative = inhibition” value turn out when `O=C(CSc1nccn1Cc1ccc(F)cc1)Nc1ccc(F)cc1F` was run?
**A.** inactive: -20.8%

**Q.** Which “activity, negative = inhibition” value does the source give for `Fc1ccc(/C=N/Nc2nccnc2Cl)cc1` here?
**A.** inactive: -11.7%

**Q.** For `COc1ccc(C(=O)CC(=O)C(=O)Nc2ccc(C)c(Cl)c2)cc1`, which Potency is on record?
**A.** inconclusive [falling, full curve, poor fit]

**Q.** `O=C(c1cccc(F)c1)N1CCN(C(=O)c2nn3cccnc3c2Cl)CC1` was tested. Which Potency did it give?
**A.** inconclusive [activator, single point]

**Q.** `O=C(COc1ccccc1)NCC(=O)N/N=C/c1cc(Br)ccc1OCc1ccccc1` was tested. Which “activity, negative = inhibition” value did it give?
**A.** inactive: -0.925%

**Q.** For `COc1ccc(-c2csc(NS(=O)(=O)c3ccc([N+](=O)[O-])cc3)n2)cc1`, which Potency is on record?
**A.** inconclusive [activator, partial curve]

**Q.** For `CN1C(=S)N(c2cccnc2)C(=O)/C1=C\c1ccc(C(C)(C)C)cc1`, which “activity, negative = inhibition” value is on record?
**A.** inactive: -3.53%

**Q.** For `CCN(CC1COc2ccccc2O1)C(=O)CN1C(=O)NC(C)(c2ccc(C)cc2)C1=O` (configuration not stated), which Potency is on record?
**A.** inconclusive [falling, single point]

**Q.** For `COc1ccccc1C(=O)NCC(c1cccs1)N1CCc2ccccc21` (configuration not stated), which Potency is on record?
**A.** inconclusive [activator, single point]

**Q.** How did the Potency turn out when `COCCN(CC(=O)Nc1cccc(C)c1C)C(=O)c1cc2c(s1)CCC2` was run?
**A.** inconclusive [falling, single point]
